Data published in PubChem BioAssay AID624417 (National Center for Advancing Translational Sciences (NCATS), 2012).
Screen size: about 410,000 compounds; about 6,400 (1.6%) were called active. The shares of active, inactive and inconclusive entries below differ from those in the screen. Calls come from the whole dose curve; as a rule, active = well fitted inhibition curve with a large enough effect; inconclusive = small, poorly fitted or top-dose-only effect; inactive = no such curve, though single readings can be large or run the other way. No potency is given beside an inconclusive call; the fits are too rough.

What follows are molecules tested against Glucagon-like peptide 1 receptor (Homo sapiens) (UniProt P43220) (assay: qHTS of GLP-1 Receptor Inverse Agonists (Inhibition Mode)). Settings: HEK293 GLP-1R CRE-luciferase, luminescence, 24 h, GLP-1R form is constitutively active; activity change, negative = inhibition: at 38.3 µM (top of the series) unless noted.
In short: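 qHTS in 1536-well format: reporter HEK293 cells expressing constitutive GLP-1R activity in DMEM + 10% Nu serum, 24 hr with compounds at 37 deg C, luminescence read after 12 min with detection reagent.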
% is set by controls: 0 for no effect and ±100 for the full control effect; potency is the fitted concentration of half-maximal effect; tags give direction and shape of the fitted curve.
Note: nearly all actives have a fitted effect of over 55% in size.

UniProt P43220, sequence (P43220 whole entry, looked up): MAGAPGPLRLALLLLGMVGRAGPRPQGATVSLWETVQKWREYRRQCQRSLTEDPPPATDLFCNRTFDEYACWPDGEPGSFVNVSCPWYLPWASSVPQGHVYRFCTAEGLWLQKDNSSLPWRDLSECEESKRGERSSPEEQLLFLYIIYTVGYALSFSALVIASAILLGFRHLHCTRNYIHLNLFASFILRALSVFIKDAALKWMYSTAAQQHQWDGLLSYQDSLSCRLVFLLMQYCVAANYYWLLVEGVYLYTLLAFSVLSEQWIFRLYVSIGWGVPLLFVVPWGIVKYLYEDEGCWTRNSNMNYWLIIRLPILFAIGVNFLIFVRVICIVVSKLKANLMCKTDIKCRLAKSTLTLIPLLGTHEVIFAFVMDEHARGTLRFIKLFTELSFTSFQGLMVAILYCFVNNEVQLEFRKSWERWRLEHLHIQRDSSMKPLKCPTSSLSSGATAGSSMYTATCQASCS

SMILES | Potency | activity change, negative = inhibition
COc1ccc([C@H]2C=C(C(=O)O)O[C@@H](OCc3ccc(CO)cc3)C2)cc1 | inconclusive [inhibitor, single point] | 
Cc1ccc(C(=O)/C=C/c2c(C)nn(-c3ccccc3)c2Cl)cc1 | inconclusive [inhibitor, single point] | 
CCN(CC)CCn1c2ccccc2c2nc3ccccc3nc21 | inconclusive [inhibitor, single point] | 
CCCCCOC(=O)CC(C(=O)OCCCCC)N1CCCCC1 (centres undefined) | active: 12.6 µM | 
Cc1cc(-c2nn(-c3ccccc3F)cc2CN2CCN(c3ccccn3)CC2)c(C)s1 | inconclusive [inhibitor, partial curve, poor fit] | 
c1ccc(-c2csc3ncnc(-n4cnc5ccccc54)c23)cc1 |  | inactive: -35.2%
C/C(=N\NC(=O)c1ccc(N/N=C(\C)c2ccncc2)cc1)c1ccncc1 | inconclusive [inhibitor, full curve, poor fit] | 
O=S(=O)(NCc1ccccc1)c1ccc2[nH]c3c(c2c1)CCCCC3 | inconclusive [inhibitor, single point] | 
COc1ccc(NC(=O)c2cc(-c3ccc(C)o3)nc3ccccc23)cc1 |  | inactive: -24.4%
COc1ccc(S(=O)(=O)NCc2ccc(C(=O)NCCCN3CCCC(C)C3)cc2)cc1 (centres undefined) | inconclusive [inhibitor, single point] | 
COc1cccc(NS(=O)(=O)c2ccc3[nH]cc(C(=O)NC4CCCCC4)c(=O)c3c2)c1 | inconclusive [inhibitor, partial curve, poor fit] | 
O=C(CN1C2=NCCN2c2ccccc21)c1ccc(Br)s1 | inconclusive [inhibitor, partial curve, poor fit] | 
CC(C)c1ccc(N(CC(=O)NC(C)(C)C)C(=O)CCC(=O)Nc2nccs2)cc1 | inconclusive [inhibitor, single point] | 
COC(=O)c1cc2sccc2n1Cc1ccccc1 | inconclusive [inhibitor, single point] | 
CC(C)(C)c1ccc(-c2noc(CCC(=O)NCc3ccco3)n2)cc1 | inconclusive [inhibitor, partial curve, poor fit] | 
Cc1onc(-c2ccccc2)c1C(=O)Nc1nnc(CC(C)C)s1 | inconclusive [inhibitor, full curve] | 
O=[N+]([O-])c1ccc(O)c2ncccc12 | inconclusive [inhibitor, partial curve, poor fit] | 
Cc1nn2c(=O)c3c4c(sc3nc2n1-c1ccccc1)COC(C)(C)C4 |  | inactive: 20.9%
CC(=O)c1ccc(N2CCN(S(=O)(=O)c3c(C)[nH]c(C)c3C(=O)N3CCCC3)CC2)cc1 |  | inactive: 32.3%
CCOc1ccc(OCCC(=O)NNC(=O)c2ccncc2)cc1 |  | inactive: 15.5%

SMILES | Potency | activity change, negative = inhibition
CC(C)c1ccc(S(=O)(=O)N2CCN(CCC(=O)Nc3ccc(N(C)C)cc3)CC2)cc1 | inconclusive [inhibitor, full curve] | 
COc1cc(C2SC(C)C(=O)N2CCc2ccccc2)cc(OC)c1OC (centres undefined) | inconclusive [inhibitor, partial curve, poor fit] | 
CC1COc2ccccc2N1S(=O)(=O)c1ccccc1 (centres undefined) | inconclusive [inhibitor, single point] | 
CN1CCN(c2ccc(S(=O)(=O)N3CCCCC3)cc2NC(=O)CCc2ccccc2)CC1 | inconclusive [inhibitor, single point] | 
CCOc1ccc(Br)cc1S(=O)(=O)N1CCCN(C)CC1 | inconclusive [inhibitor, partial curve, poor fit] | 
Cc1ccc(/C=N/NC(=O)C2(C)CC2(Br)Br)cc1 (centres undefined) | inconclusive [inhibitor, partial curve, poor fit] | 
CCn1cc2nc(SCc3cccc(OC)c3)n(Cc3ccc(Cl)cc3)c(=O)c2n1 | inconclusive [inhibitor, partial curve, poor fit] | 
N/C(Cc1cccc2ccccc12)=N\OC(=O)COc1ccccc1 | inconclusive [inhibitor, single point] | 
CCN(CC(=O)Nc1ccccc1C(F)(F)F)C(=O)CN1C(=O)NC(C)(c2ccc3ccccc3c2)C1=O (centres undefined) | inconclusive [inhibitor, single point] | 
COc1ccc(OC)c(-c2cc(C3CCN(c4cc(Cl)nc(N)n4)CC3)[nH]n2)c1 | inconclusive [inhibitor, partial curve] | 
Cc1ccc(S(=O)(=O)N2CC=C(C(=O)NCCC(C)C)CC2)cc1 | inconclusive [inhibitor, single point] | 
CCCN1CCN(CC(O)COC(c2ccc(OC)cc2)c2ccc(OC)cc2)CC1 (centres undefined) | inconclusive [inhibitor, partial curve, poor fit] | 
CN(Cc1ccc(F)cc1)C(=O)c1cccc(S(=O)(=O)NCc2ccccc2)c1 | inconclusive [inhibitor, partial curve, poor fit] | 
COc1ccc(Cl)cc1NC(=O)CN1c2ccccc2S(=O)(=O)c2ccccc21 | inconclusive [inhibitor, single point] | 
CCCCS(=O)(=O)C(=C1Nc2ccccc2N1)S(=O)(=O)CCCC | inconclusive [inhibitor, single point] | 
Cc1cc(C)nc(S/C=C/C(=O)c2ccccc2)n1 | inconclusive [inhibitor, single point] | 
OC(c1ccc(Cl)c(F)c1)c1ncc(-c2cccc(C(F)(F)F)c2)[nH]1 (centres undefined) | inconclusive [inhibitor, partial curve, poor fit] | 
CN1CCc2nc(SCC(=O)Nc3ccc(OC(F)(F)F)cc3)c(C#N)c(-c3cccs3)c2C1 | inconclusive [inhibitor, partial curve, poor fit] | 
CCOC(=O)c1c(CSC(=N)N)n(-c2ccc(C)cc2)c2cc(Br)c(OC(C)=O)cc12 | inconclusive [inhibitor, single point] | 
